Measured values taken from the supplement of paper PMC3334620.
In all, about 33,000 sequences were measured (“E-score (-0.5 to 0.5)”: median about -0.011, highest 2% from about 0.28 on). The list shows a part of the results.

These sequences were tested against T1, Gcr1 (UniProt P07261) (assay: PBM E-score (8-mer binding enrichment) (E-score (-0.5 to 0.5)); higher = stronger / more preferred TF binding; most listed sequences are background and not binding sites). Details: protein concentration: 100 nM; construct: GST-full length.
T1 sequence: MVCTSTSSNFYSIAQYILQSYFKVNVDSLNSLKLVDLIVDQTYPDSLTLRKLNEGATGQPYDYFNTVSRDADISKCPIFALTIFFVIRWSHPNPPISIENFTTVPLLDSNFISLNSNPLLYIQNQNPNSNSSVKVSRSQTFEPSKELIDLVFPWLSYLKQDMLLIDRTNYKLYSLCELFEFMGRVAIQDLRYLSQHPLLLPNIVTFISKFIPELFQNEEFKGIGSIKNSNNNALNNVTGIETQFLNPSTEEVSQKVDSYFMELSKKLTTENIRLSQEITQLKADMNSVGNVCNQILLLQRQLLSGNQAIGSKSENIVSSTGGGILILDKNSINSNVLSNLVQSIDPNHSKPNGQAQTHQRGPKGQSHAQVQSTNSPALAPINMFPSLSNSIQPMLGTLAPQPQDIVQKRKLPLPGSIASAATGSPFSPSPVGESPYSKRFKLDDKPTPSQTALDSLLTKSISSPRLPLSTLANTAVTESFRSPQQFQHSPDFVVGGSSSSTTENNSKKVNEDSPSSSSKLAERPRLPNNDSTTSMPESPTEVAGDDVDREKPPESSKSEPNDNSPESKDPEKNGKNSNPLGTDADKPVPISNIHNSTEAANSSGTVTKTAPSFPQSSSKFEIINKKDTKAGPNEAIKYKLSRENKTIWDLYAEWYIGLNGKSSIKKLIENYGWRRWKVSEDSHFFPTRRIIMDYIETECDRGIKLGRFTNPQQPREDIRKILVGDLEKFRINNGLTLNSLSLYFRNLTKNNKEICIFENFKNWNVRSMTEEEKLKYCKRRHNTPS
Procedure: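 Universal 'all 10-mer' protein binding microarrays (Agilent AMADID 015681) probed with GST-tagged S. cerevisiae TFs (full-length or DBD) made by in vitro transcription/translation (PURExpress), about 100-200 nM. Bound TF was detected with fluorescent anti-GST. Each ungapped 8-mer (which stands for itself and its reverse complement) is scored by the PBM enrichment score (E-score), a modified Wilcoxon-Mann-Whitney statistic from -0.5 to +0.5, computed with the Universal PBM Analysis Suite. Scale: above 0.35 generally sequence-specific binding.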

In order of rising “PBM E-score” value:
1. AGAGGGGG  -0.298
2. CTGGGCCA  -0.262
3. GGCATAAC  -0.249
4. CATGAGCC  -0.247
5. ATTACGTC  -0.222
6. CCTACGCC  -0.217
7. CGGCCCAG  -0.211
8. CGTTTCGA  -0.201
9. ACACTTGA  -0.2
10. CTCGGTCA  -0.199
11. CCCGTCCG  -0.198
12. GACGTGAC  -0.19
13. ACGATCGA  -0.179
14. GACAGTGA  -0.178
15. CCAATCGC  -0.176
16. ACGTGGCC  -0.174
17. AAGAATGA  -0.172
18. TCTTCCCA  -0.172
19. GGACGGGA  -0.169
20. ACATTGTG  -0.166
21. GCTTAACC  -0.162
22. AGCCTTCA  -0.16
23. CAGCCTCG  -0.157
24. CCGTCGCG  -0.155
25. TCGAAGCA  -0.152
26. AAGGGCTG  -0.15
27. AATTGTCT  -0.147
28. CCGATATC  -0.147
29. CCTCGACG  -0.143
30. GGGTCACA  -0.143
31. GCCTCAGA  -0.141
32. AGCAAGGC  -0.139
33. ACATCCAT  -0.134
34. AACAAGGC  -0.133
35. GGTACAAA  -0.128
36. AGGACGAA  -0.128
37. CAACGATA  -0.128
38. CAGGCCTC  -0.123
39. GGTGTTTA  -0.12
40. CCATGCCC  -0.119
41. AGACAATA  -0.117
42. CGAACCTA  -0.117
43. CGTCGCAC  -0.116
44. ATAAGTCC  -0.115
45. CACAGCGG  -0.113
46. CAAATGCA  -0.11
47. CCTATACC  -0.107
48. AGCCAGCT  -0.106
49. CGCTAGCG  -0.1
50. AGGGTTGG  -0.0979
51. TAAAGCAA  -0.0965
52. GTGTCAAC  -0.0927
53. GGGCAGTA  -0.0924
54. ACACACCA  -0.0914
55. ACCGTCAT  -0.0894
56. CGGTACGC  -0.0877
57. GGAGCGAA  -0.0873
58. AGAATGTC  -0.0871
59. ACTCCAGC  -0.0861
60. AGTGACGC  -0.0847
61. GCGACAGC  -0.0838
62. TACGGACA  -0.0831
63. AGGAGTGA  -0.0787
64. CATTGCAA  -0.0752
65. GGCGATCA  -0.0747
66. CAAGCACG  -0.0729
67. GAAAGTAC  -0.0722
68. GAGTAAGA  -0.072
69. CCGTCTCG  -0.0715
70. ACGCGGTG  -0.0712
71. AGGAGTCG  -0.069
72. TCATAGAA  -0.0688
73. CAGCACAG  -0.0678
74. CTGTCGGA  -0.0666
75. CGCCAAAC  -0.0653
76. CAGGGGTA  -0.0642
77. CGCATAAC  -0.0637
78. GCAAATGA  -0.0634
79. ATTGGGGA  -0.0622
80. TCAGGCGA  -0.0619
81. ACCCTTGG  -0.0616
82. GAGAACAC  -0.0589
83. TCAGGAAA  -0.0586
84. AATTGCCA  -0.0551
85. AACCCCAC  -0.0522
86. AAATGCAT  -0.0522
87. AATGCCGT  -0.0487
88. ATTGTCCG  -0.0479
89. CCGAGCCA  -0.0468
90. CAACCCCG  -0.0459
91. GCGAGAGC  -0.0442
92. GGAGGGAA  -0.0438
93. AAGTGATC  -0.0428
94. CGAAAGAG  -0.0406
95. GAGCAAGA  -0.037
96. AGATCCGC  -0.0362
97. CCAATCCA  -0.0361
98. CTCGATGA  -0.0328
99. CCGAGAGG  -0.0295
100. AAAGCTGG  -0.0228
101. CTCGCCCA  -0.0222
102. ACATGGCA  -0.0219
103. ACAAGTCA  -0.0209
104. AACACCTC  -0.0203
105. GTGTTAGA  -0.0193
106. AACCTTGT  -0.0184
107. GCGACTGA  -0.0182
108. CAATTTTA  -0.0169
109. ATCACGCC  -0.0162
110. ATGACAGG  -0.0161
111. AAACACGG  -0.0152
112. GAACAATA  -0.0142
113. TACAGTGA  -0.0134
114. TACTGCAA  -0.0122
115. GTTCGGGA  -0.00896
116. CCATAGCG  -0.00534
117. ATCTTCTC  -0.00483
118. CCTGGATC  -0.00306
119. AATACAAA  -0.00293
120. ATTAGTGC  -0.00168
121. CGCAGTAG  0.00028
122. CTGCGCAG  0.00124
123. GATTACGC  0.00172
124. TGCAGCCA  0.00515
125. GCGGACAC  0.00647
126. AGAGCGAG  0.00999
127. ACACAATA  0.0111
128. ATAGAAGA  0.0114
129. AACTGCTA  0.0143
130. AGAGCCCC  0.016
131. TCCAGCCA  0.0161
132. CTCACGCA  0.0172
133. GCTCGACA  0.0183
134. TATTCCGA  0.0257
135. AACATGGG  0.0296
136. GACTCCCC  0.0306
137. ACCCGCAA  0.0318
138. CAGACAGG  0.0378
139. AACCCAGC  0.0411
140. ACGGGATG  0.0415
141. ATCACGGC  0.0519
142. GTATTTGA  0.0535
143. GAGAAGAC  0.0559
144. TAGTATGA  0.0561
145. GACCAACA  0.0568
146. ACATAGGT  0.0584
147. AACTAAGA  0.0588
148. AAACTACC  0.0598
149. AATAGGGA  0.0607
150. ACCCGGGG  0.0615
151. ACACGTGG  0.0635
152. GTAGGAAA  0.0638
153. ATGCCAAC  0.0656
154. ATCTATTC  0.066
155. CTAGAGGC  0.0669
156. TAAGCCAA  0.0672
157. AACTTGCT  0.0674
158. GAACCACA  0.0678
159. CACGATTC  0.0682
160. CATTATCA  0.0688
161. AGCCTCTG  0.0714
162. AATTTGCT  0.0719
163. CAACCCGA  0.0742
164. CAGGTGTC  0.0776
165. AGCGAAAG  0.0778
166. AATTTAAT  0.0785
167. AATATGAT  0.0787
168. CCTGTTCC  0.0795
169. ACCTGGAG  0.0814
170. ACCGCTAA  0.0833
171. GCGGCGTA  0.0853
172. GTAGACGA  0.0867
173. ACGCGAAG  0.0871
174. CGCATCGA  0.0887
175. ATTATAAC  0.0894
176. GACGATAC  0.0896
177. AGTGCAGC  0.0946
178. TGCAGGCA  0.0947
179. GAAAGCGA  0.0995
180. AAATTTGT  0.102
181. AATCACTA  0.11
182. CTAGTGAC  0.112
183. GAACCTAA  0.113
184. CCACATAC  0.116
185. GTTCCTGA  0.118
186. AAATCTAG  0.121
187. TACCGATA  0.124
188. GACTTCCC  0.127
189. AGATTTCA  0.128
190. CGAAACAC  0.13
191. CGGACGTC  0.134
192. ACCCAGAT  0.135
193. ATTAATTA  0.136
194. CGCCATAA  0.143
195. CGCTTTTA  0.144
196. GCTGGCAA  0.155
197. AGAATTTG  0.161
198. TATCACCA  0.162
199. GATCTAGA  0.165
200. GTGCCGGA  0.169
201. GCCTATAA  0.17
202. ATGGCATC  0.175
203. ACTTGTTA  0.175
204. GCATCATA  0.18
205. CGAACTCC  0.181
206. ATCTTGTA  0.185
207. AGATTGGA  0.192
208. CCCAAAGA  0.2
209. GAAGATGC  0.202
210. TATTAAGA  0.202
211. ATATTGGA  0.205
212. TAGTGGGA  0.22
213. AACCCCAT  0.225
214. TACACGCA  0.235
215. AACCACTA  0.241
216. AGATGCTA  0.25
217. AGGAAGAT  0.254
218. ACCACTAG  0.267
219. AAGATGCT  0.288
